Results from patent US9096871B2, “Variant CBH I polypeptides with reduced product inhibition” (BP Corporation North America Inc., priority 2010, dated 2015).

Legend:
[1] = Library screening of BD29555 variants using the 4-MUL assay with and without cellobiose, with gluconolactone; assay type: biochemical
Experimental: 4-Methylumbelliferyl Lactoside (4-MUL) Assay: This assay measures the activity of CBH I on the fluorogenic substrate 4-MUL (also known as MUL). Assays were run in a costar 96-well black bottom plate, where reactions were initiated by the addition of 4-MUL to enzyme in buffer (2 mM 4-MUL in 200 mM MES pH 6). Enzymatic rates were monitored by fluorescent readouts over five minutes on a SPECTRAMAX™ plate reader (ex/em 365/450 nm). Data in the linear range was used to calculate initial rates (Vo).
(§1) Cellobiose Tolerance Assays (or Cellobiose Inhibition Assays): Tolerance to cellobiose (or inhibition caused by cellobiose) was tested in two ways in the CBH I assays. A direct-dose tolerance method can be applied to all of the CBH I assays (i.e., 4-MUL, PASC, and/or bagasse assays), and entails the exogenous addition of a known amount of cellobiose into assay mixtures. […]
The wild type CBH I polypeptide BD29555 was mutagenized to identify variants with improved product tolerance. […] This product-release-site library was designed based on residues directly interacting with the cellobiose product in an attempt to identify variants with weakened interactions with cellobiose from which the product would be released more readily than the wild type enzyme. […]

[2] = Bagasse assay in the absence and presence of β-glucosidase (BG); assay type: biochemical
Experimental: Bagasse Assay: This assay measures the activity of CBH I on bagasse, a lignocellulosic substrate. Reactions were run in 10 ml vials with 5% dilute acid pretreated bagasse (250 mg solids per 5 ml reaction). Each reaction contained 4 mg CBH I enzyme/g solids, 200 mM MES pH 6, kanamycin, and chloramphenicol. Reactions were incubated at 35° C. in hybridization incubators (Robbins Scientific), rotating at 20 RPM. Time points were taken by transferring a sample of homogenous slurry (150 μl) into a 96-well deep well plate and quenching the reaction with stop buffer (450 μl of 500 mM sodium carbonate, pH 10). Time point measurements were taken every 24 hours for 72 hours.
as §1, with “mixtures. A different indirect method entails the addition of an excess amount of β-glucosidase (BG) to PASC and bagasse assays (typically, 1 mg β-glucosidase/g solids loaded). BG will enzymatically hydrolyze the cellobiose generated during these assays; therefore, CBH I activity in the presence of BG can be taken as a measure of activity in the absence of cellobiose.” for “mixtures.”

B1: R273K/R422K: BD29555 CBH I with substitutions R273K/R422K (corresponding to R268K/R411K of T. reesei CBH I); SEQ ID NO:301/302 (protein)
chain: QQIGTYTAETHPSLSWSTCKSGGSCTTNSGAITLDANWRWVHGVNTSTNCYTGNTWNTAICDTDASCAQDCALDGADYSGTYGITTSGNSLRLNFVTGSNVGSRTYLMADNTHYQIFDLLNQEFTFTVDVSHLPCGLNGALYFVTMDADGGVSKYPNNKAGAQYGVGYCDSQCPRDLKFIAGQANVEGWTPSSNNANTGLGNHGACCAELDIWEANSISEALTPHPCDTPGLSVCTTDACGGTYSSDKYAGTCDPDGCDFNPYRLGVTDFYGSGKTVDTTKPITVVTQFVTDDGTSTGTLSEIRRYYVQNGVVIPQPSSKISGVSGNVINSDFCDAEISTFGETASFSKHGGLAKMGAGMEAGMVLVMSLWDDYSVNMLWLDSTYPTNATGTPGAAKGSCPTTSGDPKTVESQSGSSYVTFSDIRVGPFNSTFSGGSSTGGSSTTTASGTTTTKASSTSTSSTSTGTGVAAHWGQCGGQGWTGPTTCASGTTCTVVNPYYSQCL
modifications: source: /note="Description of Unknown: Variant CBH I polypeptide sequence"
- cellobiose tolerance in library screen ([1]; 250 mg/L cellobiose): cellobiose tolerance at 250 mg/L
- activity among the library variants ([1]; 60-member BD29555 library, 4-MUL assay): greatest activity among the variants
- sensitivity to the presence or accumulation of cellobiose compared with wild type ([2]; bagasse assay, absence vs. presence of BG): less sensitive to the presence of cellobiose than the wild type
- Tolerance to cellobiose accumulation % Activity in Bagasse Assay (−/+BG) ([2]; variants of BD29555, [(Activity without BG)/(Activity with BG)]*100, conversion of glucan after 72 hours): 84%
